From PubChem BioAssay AID1963436 (Molecular Pharmacology Branch, DTP, NCI, 2024)
For part of its entries the source gives two or more results. The other results are left out here. The source may hold further records. Values given together are repeated measurements (runs, samples, wells, individuals or studies). Brackets with × say how often a value occurs here.

Tested on: OVCAR-5 complex spheroid (HUVEC/MSC), viability % T/C
Experiment: Anticancer human tumor OVCAR-5 cell line growth inhibition [Asc];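 note: spheroids exposed to agents for 7 days before readout; 100% = DMSO vehicle-treated wells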
Settings: stronger effect = lower value
Description: Multicellular complex tumor spheroid response to apoptosis pathway targeting inhibitors Alrizomadlin, Pelcitoclax, and Dasminapant in combination with a variety of drugs and investigational agents in selected tumor cell lines
The MDM2 inhibitor alrizomadlin, the Bcl-2/Bcl-xL inhibitor pelcitoclax, and the IAPs inhibitor dasminapant were evaluated both individually and in combination with standard of care and investigational anticancer small molecules within a complex spheroid model of solid tumors. . Complex spheroids include a stromal component modeled by human endothelial cells (HUVEC) and fibroblasts modeled by human mesenchymal stem cells (MSCs). The concentration ranges selected for each drug and investigational agent were based upon clinically achievable concentrations if the clinical Cmax of the agent was known.
Compounds. […] If the clinical Cmax for an agent had not been determined, the highest concentration tested was 10 microM. […]

**Q.** For Cc1c(S(C)(=O)=O)c(-c2cc(F)cc(N3CCN(c4ccc(NS(=O)(=O)c5ccc(NC(CCN6CCC(C(=O)OCCCP(=O)(O)O)CC6)CSc6ccccc6)c(S(=O)(=O)C(F)(F)F)c5)cc4)CC3)c2)c(-c2ccc(Cl)cc2)n1C(C)C (configuration not stated), which viability, T/C (compound alone 0.1 µM) is on record?
**A.** The viability, T/C was 90.7, 91.9, 109, 94.3, 82.2, 94.2, 101 (2×), 95.9, 99.3, 89.7, 88.3, 95.7, 82.8%.

**Q.** And the viability, T/C (compound alone 10 µM)?
**A.** The viability, T/C was 112 (2×), 121, 123, 109, 92.8, 124, 104, 118, 111, 114, 117, 115, 103%.
